The labels stand for the following.
B1: CBL5 (calcineurin B-like protein 5) fused to the GAL4 activation domain (protein, UniProt Q7FZF1 1-203)
chain: MGCVCSKQLEGRRQEDISLLASQTFFSEAEVEVLHGLFIKLTSCLSNDNLLTKEKFQFILIKNTKKRSLSAERIFGLFDMRNDGAIDFGEFVHTLNIFHPNSSPRDKAIFAFRLYDTRETGFIEPEEVKEMIIDVLEESELMLSESIIDSIVSKTFEEADWKKDGIIDLEEWENFVATYPLTLKNMTIPFLKDIPRIFPTFLR
B2: CBL8 (calcineurin B-like protein 8) fused to the GAL4 activation domain (protein, UniProt Q9FUQ7 1-214)
chain: MLAFVKCFSLKRAKHPRGYEDPHVLASETPFTVNEIEALHDLFKKLSTSIINDGLIHKEEFLLALFRNGSMQNLFADRVFYMFDRKRNGVIEFGEFVRSLSIFHPYTPEHEKSAFMFKLFDLHGTGFIEPHELKKMVGALLGETDLELSEESIEAIVEQTMLEVDTNKDGKIDEEEWKELVAKNPSILKNMTLPYLKEVTLAFPSFVLDSEVED
B3: CBL5–YFP^C (protein, UniProt Q7FZF1 1-203)
chain: B1 chain

Chains of the proteins cited; added tags and fusions are not shown.
UniProt O81445: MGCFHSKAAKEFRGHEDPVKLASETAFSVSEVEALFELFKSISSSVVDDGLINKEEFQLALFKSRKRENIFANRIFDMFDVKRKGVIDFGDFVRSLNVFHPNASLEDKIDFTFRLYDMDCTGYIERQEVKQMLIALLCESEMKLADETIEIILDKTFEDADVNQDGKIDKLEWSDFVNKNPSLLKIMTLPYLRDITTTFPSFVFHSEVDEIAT
UniProt O81223: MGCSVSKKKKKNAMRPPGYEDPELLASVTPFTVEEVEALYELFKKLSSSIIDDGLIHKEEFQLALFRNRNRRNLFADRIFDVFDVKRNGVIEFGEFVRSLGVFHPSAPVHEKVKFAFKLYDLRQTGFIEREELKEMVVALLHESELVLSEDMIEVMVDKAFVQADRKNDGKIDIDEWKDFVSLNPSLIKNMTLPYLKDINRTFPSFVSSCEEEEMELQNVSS
UniProt Q9C5P6: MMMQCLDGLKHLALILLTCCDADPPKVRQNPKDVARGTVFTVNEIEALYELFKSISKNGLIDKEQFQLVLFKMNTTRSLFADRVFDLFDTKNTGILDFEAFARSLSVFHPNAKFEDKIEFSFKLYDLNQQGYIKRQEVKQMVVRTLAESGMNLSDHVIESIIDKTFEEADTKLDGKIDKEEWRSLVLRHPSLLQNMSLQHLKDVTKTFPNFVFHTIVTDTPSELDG
UniProt Q9SUA6: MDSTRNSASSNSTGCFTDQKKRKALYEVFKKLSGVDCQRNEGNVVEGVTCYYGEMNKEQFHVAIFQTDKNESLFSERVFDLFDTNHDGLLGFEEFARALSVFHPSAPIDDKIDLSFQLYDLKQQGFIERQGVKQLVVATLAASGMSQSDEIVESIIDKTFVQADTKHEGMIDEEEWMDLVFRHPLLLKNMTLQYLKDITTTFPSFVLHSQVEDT
UniProt Q9LTB8: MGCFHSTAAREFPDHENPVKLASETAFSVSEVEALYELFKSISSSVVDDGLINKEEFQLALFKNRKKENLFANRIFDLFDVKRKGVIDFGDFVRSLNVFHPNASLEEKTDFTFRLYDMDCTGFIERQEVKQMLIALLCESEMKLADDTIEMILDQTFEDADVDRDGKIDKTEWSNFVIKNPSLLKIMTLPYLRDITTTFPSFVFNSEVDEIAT
UniProt Q7FRS8: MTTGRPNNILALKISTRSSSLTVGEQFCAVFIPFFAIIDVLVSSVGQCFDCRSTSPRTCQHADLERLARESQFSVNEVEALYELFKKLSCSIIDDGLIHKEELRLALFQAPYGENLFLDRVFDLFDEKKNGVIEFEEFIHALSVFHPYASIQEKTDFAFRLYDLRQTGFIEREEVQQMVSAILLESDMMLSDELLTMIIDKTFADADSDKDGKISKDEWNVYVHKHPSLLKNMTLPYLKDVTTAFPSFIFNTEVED

These are yes or no findings as the source states them, for the method shown. For some of these results: In cells and extracts the contact can be indirect. Some binding calls cover weakened binding; strength is not graded here. Sequences can lack the tags named with a protein.

In one assay the target is T1, CIPK25 (CBL-interacting protein kinase 25) fused to the GAL4 DNA-binding domain (Arabidopsis thaliana) (UniProt Q8W1D5).
T1 sequence: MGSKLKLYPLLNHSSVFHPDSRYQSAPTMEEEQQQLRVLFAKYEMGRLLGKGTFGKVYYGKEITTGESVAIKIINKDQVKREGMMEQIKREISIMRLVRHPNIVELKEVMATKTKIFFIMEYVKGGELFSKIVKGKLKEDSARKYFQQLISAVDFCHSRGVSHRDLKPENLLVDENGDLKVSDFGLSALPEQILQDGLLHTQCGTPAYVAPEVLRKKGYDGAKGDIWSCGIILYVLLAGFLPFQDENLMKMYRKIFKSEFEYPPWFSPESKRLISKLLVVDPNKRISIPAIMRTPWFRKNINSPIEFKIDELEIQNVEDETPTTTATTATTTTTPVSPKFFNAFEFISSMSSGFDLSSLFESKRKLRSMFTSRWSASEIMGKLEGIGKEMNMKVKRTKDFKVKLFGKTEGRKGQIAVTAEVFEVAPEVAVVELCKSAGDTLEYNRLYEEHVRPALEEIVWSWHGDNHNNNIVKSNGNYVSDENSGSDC
The experiment in a line: two-hybrid; GAL4 DNA-binding domain-CIPK25 (pGBKT7) with GAL4 activation domain-CBL1 to CBL10 (pGADT7) in Y2H Gold yeast; dilutions spotted on quadruple drop-out medium (-Leu-Trp-Ade-His) with 2.5 mM 3-AT, 30 °C, 5 d.
As to “CBL1 (calcineurin B-like protein 1) fused to the GAL4 activation domain (from UniProt O81445 1-213)”, the binding entry is “no binding”.

For “CBL2 (calcineurin B-like protein 2) fused to the GAL4 activation domain (from UniProt Q8LAS7 1-226)”, the binding entry was “no binding”.

As to “CBL3 (calcineurin B-like protein 3) fused to the GAL4 activation domain (from UniProt Q8LEM7 1-226)”, the binding result is given as “no binding”.

For the molecule “CBL4 (calcineurin B-like protein 4) fused to the GAL4 activation domain (from UniProt O81223 1-222)”, the binding result is recorded as “binds”.

“CBL6 (calcineurin B-like protein 6) fused to the GAL4 activation domain (from UniProt Q9C5P6 1-226)”: the binding entry is “no binding”.

With “CBL7 (calcineurin B-like protein 7) fused to the GAL4 activation domain (from UniProt Q9SUA6 1-214)”, the binding result is recorded as “no binding”.

In the case of “CBL9 (calcineurin B-like protein 9) fused to the GAL4 activation domain (from UniProt Q9LTB8 1-213)”, the binding result is reported as “no binding”.

As to “CBL10 (calcineurin B-like protein 10) fused to the GAL4 activation domain (from UniProt Q7FRS8 1-256)”, the binding result was “no binding”.

On to B1, for which the binding entry is on record as “binds”.

For the molecule B2, the binding result is given as “no binding”.

The target in the next assay is T2, YFP^N–CIPK25 (Arabidopsis thaliana) (UniProt Q8W1D5).
T2 sequence: T1 sequence
The experiment in a line: split reporter; BiFC: YFP^N–CIPK25 with CBL–YFP^C transiently expressed in N. benthamiana leaves by agroinfiltration; YFP fluorescence by confocal microscopy and, for leaf discs, by plate reader (485 nm excitation, 520 nm emission).
For CBL4–YFP^C (from UniProt O81223 1-222), the binding result was “binds”.

In the case of CBL9–YFP^C (from UniProt Q9LTB8 1-213), the binding result is recorded as “no binding”.

Regarding B3, the binding result is “binds”.

Values taken from PMC6305191.
